Measured values as given in the RNAGym collection of RNA variant scans (doi:10.7554/elife.90254).
The source gives no read counts; variants with many changes may rest on few reads.

B1: OR4K15 (parent)
chain: GUUAACGGUCAUAGGCCAUGGAAACUAGGAGCACCAUUUCGCUGCCAGUGAAGAAAUGAACAAAGAAAAUCUGGGCCAGGCAGGCAUCAAAAGAAAUAGUCUUGCGCUCAACCAGAAAGUCUGUAAUCAUUUUAAGGGUA

Variants of: B1
Assay: self-cleavage, relative activity (ratio to wild type); higher = more cleavage; in vitro, sequencing; the parent is a self-cleaving ribozyme

Variant | self-cleavage
A4G A24G U43C A51G U72A | 0.29
A11G A78G A91G | 0.13
U57A A96G G137C | 1.71
U39A A69G G84A A90G U100C | 0.32
A18G A30G A126G A140U | 0.84
U9C U19A A47G A68G | 0.77
A24U A54G G75C A114U | 0.03
U26C U43A U57C A67G A111G | 0.04
A24U A47G A89G A91G A117G U132C | 0
U19C A22G A59G A92G A95G | 1.87
A56G A60G U122C | 1.08
A11G A18G U70C A86C A118G | 0.1
A23G U127G U131C | 0.76
A23G U39A A69G | 0.72
U39C A51G A59G | 1.21
A30G U39C A89U U120A | 1.77
A33G A52G A63G A78G | 0.21
C34A A52C U131C | 1.44
A67G U87C A126G U130C U132C | 0.46
A52U U122G A126G A129G | 0.96
A54G A78G A134G | 0.24
U43C A68G A114G | 0.41
A23G A56G A62G A117G | 0.3
U2A A36G U49C | 2.67

Variant | self-cleavage
A23G A30G U39A A69G | 1.6
A56G A60G U72A U87C A110G | 0.05
A4G A30G A63G C121U | 1.83
A18U A30G U120C A126G | 0.77
U38A A68G A89G A91G | 1.25
A22G U43C A116G | 1.59
A66G A92G C105U | 0
U37C U100C A116U | 1.15
A11G A78U U87C A129C U130C | 0.06
U38C U43G A82U | 0.14
U26A A56G G75A U124C A126G | 0.03
A24G U37C U131A | 1.37
G15A U43C U130C | 0.48
U2C A18C A33U A52G A96G | 1.61
U39C A66G A134G | 0.72
A51G U87C A114U | 0.14
A82U A94G A111G | 0
U12C A24U A91G | 0.49
A18U U26C U127C | 0.7
A23G A66U A67G | 0.89
A52G A89G A92G | 0.48
U70C A91G A116G U122C | 0.96
A33G A82G G99A | 0.05
A18U A36U A78G | 0.34

Variant | self-cleavage
A63G A64G A140U | 2.08
U9C A54U A86G | 1.11
G14U C32U A55G U103C | 1.25
A52G A69G U102C | 1.53
A13G A36G A82U | 0.15
U38C U87C U100C | 2.37
A54G A59G A82G U108C | 0.1
A22G A23G U57A A67U | 0.89
A33G U72C A86G A135G | 0.29
A94G C113U U130G | 0.01
A18U A30G U72A U139A | 0.37
A51G A54G A56U A68G A116G | 1.13
A52G A60G A118G A129G | 0.66
U103C G123A A135G | 1.17
U39A A56G A63G | 1.15
A5U U43C A68G | 1.24
A18U U57C A90G A95G A135G | 1.31
A30G A82G U103A U122C | 0.08
G75A C88A A117G A126G | 0.03
G44A A56U A89U | 2.1
U43A A92G U108C | 0.04
A91G A96G A117G | 1.08
A69U U120C G136U | 1.39
A59G A82G A111G A129G | 0

Variant | self-cleavage
U9C A18G A30G U132C | 1.18
A55G U103C A129C | 0.38
A51C U72C A110U A111G A118G | 0.02
A36U A55G A59G | 1.39
A47C U103G A116G | 0.02
A59G U70C G75A A86G | 0.11
A52G A89C A94G | 2.37
C10U A52G A56G A116G | 0
A5G U100C A135G | 2.32
A30G A90G C128U | 0.25
A5G A52G A68U A111G | 0.18
A30U U37G A60G | 0.32
A30G A78U A118U U124C | 0
A56G U72C A82G A94G A114G A116G | 0.25
U9C A36U A126G | 0.76
G7U A90G A116G U127A | 1.23
U43C A82G A135G | 0.43
A23G U49C A66G | 1.69
U87C A92G A94G | 2
U9A U26C G31A C34U | 0.81
U9C A52G A60G | 1.04
A4G A23C A47G A55C A56G A60G A63U A66C A117G | 0
A55G U57G U122C | 0.87
A23G G75A U102A | 0.17

Variant | self-cleavage
U12C G106A U132A | 0.01
U3C U49C A96U | 1.2
A68U U100A U122C | 0.2
A23U A33U A90U A94G | 1.06
A18G U49C A64G | 1.22
A5G A94U A114G U122A | 0.44
A30G A33U U72A U102A A117G | 0.16
A24U A33G U57C A67G G74U A111G | 0.02
A11G A33G A56G | 1.09
A13U U43C A110U U120A U132C | 0.62
U49C A51C A66G U100A U131C | 0.07
A78G A90G A95G | 0.13
U9C U37C A60G A95G | 1.58
A5G A59G G83A | 1.1
A63G A89G A92G U102C G106A A125G U127C A135G | 0
A86U U87C U127C | 0.64
U12C A51G A63G A129G | 1.04
A11U A66G A96G A129G | 1.02
A18G A95G A114G | 1.76
A18C U57C C121U A140G | 2.23
A55G U57C U87A U130C A135G | 1.56
U43A A52G U70C | 0.49
U12C U39C A125G | 0.69
A30G A56G U122C | 0.51

Variant | self-cleavage
A96G A118U U131C | 0.29
U39C A69G C128U U130C | 0.98
U70C A118G U131C | 0.08
G1C A5G U39A A63G | 0.29
U19C A22G U130C | 1.09
U57C A114G U130A | 0.1
A54G A55G A66G | 0.54
A11U A94U A126G | 0.8
U2C A23G A94G | 1.04
A63G G75A U124C | 0.22
U43C U87C A96G | 1.63
A23U U43C A69G | 1
A56G U57C A60G | 0.46
U72A U132C U139G | 0.09
G8C U9C A33G A140C | 1.53
A67G A86G A111G A129G | 0
U19A U39C A51G | 2.36
A23U A36G U38C | 0.81
A27G A47C A64G U70C | 0.63
A54U U100G U131C | 2.68
U2C A30U A94G | 0.92
A63G A114G A125C | 0.6
U26G U39A U49C A64G A67G U108C | 0
U57C A62G A64U | 0.62

Variant | self-cleavage
A89U A92G U130C | 1.43
C6U A30G A91C A140G | 1.05
U2C A52G U102C A126G | 0.73
A36U U103C A111G | 0
A52U A95G U122C | 2.49
A4G A24G A68G | 0.97
A82U U97C A98G C105A | 0
A22G A62G U72C A91G | 0.2
C105A A116G U120A U130A | 0.02
U43A A96G U108C | 0.02
U38A A78U A96G U103C A111G A126G U133C | 0
U2C A63U A89G | 1.31
U49C A52G A96U U133C | 1.92
A4G U49C U139G | 1.19
A30U C35U A51G C128U | 0.32
U2C A30G A126G | 0.3
A36C G44A U87A A91G A140G | 2.02
U39C A66U A116G U122C | 0.38
A68G U70C U122C | 0.23
A33G A89G A111G A117G U120C A126U | 0
U19C A22G C45U G50U A55G U108C | 0.05
U87C A91G U100C U103A | 1.03
U39C U43G U87G A114G | 0.25
